# Substitutions are numbered along the chain they refer to; changes in the protein carry UniProt numbers. The list shows a part of the results.
# T1: RBFOX1 RRM (Homo sapiens, UniProt Q9NWB1 109-208)
# T1 sequence: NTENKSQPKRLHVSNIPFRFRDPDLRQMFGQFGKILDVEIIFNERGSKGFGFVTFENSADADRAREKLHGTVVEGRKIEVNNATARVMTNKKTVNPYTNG
# B1: UCCACUU (DNA:RNA)
# RNA: GGGAGACCGGAAUUCAGAUUGUCCUCCACUUUUAAAUCCCGUCGUAGCCACCA
# DNA 1: CAATCTGAATTCCGGTCTCCC
# DNA 2: TGGTGGCTACGACGGGATT
# B2: UGUGUUG (DNA:RNA)
# RNA: B1 RNA with C26G, C27U, A28G, C29U, U31G
# DNA 1: CAATCTGAATTCCGGTCTCCC
# DNA 2: TGGTGGCTACGACGGGATT
# B3: GGGCGGU (DNA:RNA)
# RNA: B1 RNA with U25G, C26G, C27G, A28C, C29G, U30G
# DNA 1: CAATCTGAATTCCGGTCTCCC
# DNA 2: TGGTGGCTACGACGGGATT
# B4: ACCCAAA (DNA:RNA)
# RNA: B1 RNA with U25A, A28C, C29A, U30A, U31A
# DNA 1: CAATCTGAATTCCGGTCTCCC
# DNA 2: TGGTGGCTACGACGGGATT
# B5: CGCUUUC (DNA:RNA)
# RNA: B1 RNA with U25C, C26G, A28U, C29U, U31C
# DNA 1: CAATCTGAATTCCGGTCTCCC
# DNA 2: TGGTGGCTACGACGGGATT
# B6: GCCGGUC (DNA:RNA)
# RNA: B1 RNA with U25G, A28G, C29G, U31C
# DNA 1: CAATCTGAATTCCGGTCTCCC
# DNA 2: TGGTGGCTACGACGGGATT
# B7: CAGUAGA (DNA:RNA)
# RNA: GGGAGACCGGAAUUCAGAUUGUCCCAGUAGAUUAAAUCCCGUCGUAGCCACCA
# DNA 1: CAATCTGAATTCCGGTCTCCC
# DNA 2: TGGTGGCTACGACGGGATT
# B8: AAGCAGC (DNA:RNA)
# RNA: B7 RNA with C25A, U28C, A31C
# DNA 1: CAATCTGAATTCCGGTCTCCC
# DNA 2: TGGTGGCTACGACGGGATT
# B9: ACCGAGC (DNA:RNA)
# RNA: B7 RNA with C25A, A26C, G27C, U28G, A31C
# DNA 1: CAATCTGAATTCCGGTCTCCC
# DNA 2: TGGTGGCTACGACGGGATT
# B10: CAACAGG (DNA:RNA)
# RNA: B7 RNA with G27A, U28C, A31G
# DNA 1: CAATCTGAATTCCGGTCTCCC
# DNA 2: TGGTGGCTACGACGGGATT
# B11: AUGUAUC (DNA:RNA)
# RNA: B7 RNA with C25A, A26U, G30U, A31C
# DNA 1: CAATCTGAATTCCGGTCTCCC
# DNA 2: TGGTGGCTACGACGGGATT
# B12: AUAGAGU (DNA:RNA)
# RNA: B7 RNA with C25A, A26U, G27A, U28G, A31U
# DNA 1: CAATCTGAATTCCGGTCTCCC
# DNA 2: TGGTGGCTACGACGGGATT
# B13: AAAUCCG (DNA:RNA)
# RNA: B7 RNA with C25A, G27A, A29C, G30C, A31G
# DNA 1: CAATCTGAATTCCGGTCTCCC
# DNA 2: TGGTGGCTACGACGGGATT
# B14: UAAUUUC (DNA:RNA)
# RNA: B7 RNA with C25U, G27A, A29U, G30U, A31C
# DNA 1: CAATCTGAATTCCGGTCTCCC
# DNA 2: TGGTGGCTACGACGGGATT
# B15: UCCUGCA (DNA:RNA)
# RNA: B1 RNA with A28U, C29G, U30C, U31A
# DNA 1: CAATCTGAATTCCGGTCTCCC
# DNA 2: TGGTGGCTACGACGGGATT
# B16: CAAGGUC (DNA:RNA)
# RNA: B7 RNA with G27A, U28G, A29G, G30U, A31C
# DNA 1: CAATCTGAATTCCGGTCTCCC
# DNA 2: TGGTGGCTACGACGGGATT
# B17: UAAGGCG (DNA:RNA)
# RNA: B7 RNA with C25U, G27A, U28G, A29G, G30C, A31G
# DNA 1: CAATCTGAATTCCGGTCTCCC
# DNA 2: TGGTGGCTACGACGGGATT
# B18: CUAGCUU (DNA:RNA)
# RNA: B1 RNA with U25C, C26U, C27A, A28G
# DNA 1: CAATCTGAATTCCGGTCTCCC
# DNA 2: TGGTGGCTACGACGGGATT
# B19: CCACCUU (DNA:RNA)
# RNA: B1 RNA with U25C, C27A, A28C
# DNA 1: CAATCTGAATTCCGGTCTCCC
# DNA 2: TGGTGGCTACGACGGGATT
# B20: CAAUGGC (DNA:RNA)
# RNA: B7 RNA with G27A, A29G, A31C
# DNA 1: CAATCTGAATTCCGGTCTCCC
# DNA 2: TGGTGGCTACGACGGGATT
# B21: ACACUGC (DNA:RNA)
# RNA: B7 RNA with C25A, A26C, G27A, U28C, A29U, A31C
# DNA 1: CAATCTGAATTCCGGTCTCCC
# DNA 2: TGGTGGCTACGACGGGATT
# B22: GGGGCGA (DNA:RNA)
# RNA: B7 RNA with C25G, A26G, U28G, A29C
# DNA 1: CAATCTGAATTCCGGTCTCCC
# DNA 2: TGGTGGCTACGACGGGATT
# B23: AUGGGUC (DNA:RNA)
# RNA: B7 RNA with C25A, A26U, U28G, A29G, G30U, A31C
# DNA 1: CAATCTGAATTCCGGTCTCCC
# DNA 2: TGGTGGCTACGACGGGATT
# B24: CGACCUU (DNA:RNA)
# RNA: B1 RNA with U25C, C26G, C27A, A28C
# DNA 1: CAATCTGAATTCCGGTCTCCC
# DNA 2: TGGTGGCTACGACGGGATT
# B25: AACUAAG (DNA:RNA)
# RNA: B7 RNA with C25A, G27C, G30A, A31G
# DNA 1: CAATCTGAATTCCGGTCTCCC
# DNA 2: TGGTGGCTACGACGGGATT
# B26: GGGACGG (DNA:RNA)
# RNA: B7 RNA with C25G, A26G, U28A, A29C, A31G
# DNA 1: CAATCTGAATTCCGGTCTCCC
# DNA 2: TGGTGGCTACGACGGGATT
# B27: CAAUCCG (DNA:RNA)
# RNA: B7 RNA with G27A, A29C, G30C, A31G
# DNA 1: CAATCTGAATTCCGGTCTCCC
# DNA 2: TGGTGGCTACGACGGGATT
# B28: CCUUUAA (DNA:RNA)
# RNA: B7 RNA with A26C, G27U, A29U, G30A
# DNA 1: CAATCTGAATTCCGGTCTCCC
# DNA 2: TGGTGGCTACGACGGGATT
# B29: UUGGCUU (DNA:RNA)
# RNA: B1 RNA with C26U, C27G, A28G
# DNA 1: CAATCTGAATTCCGGTCTCCC
# DNA 2: TGGTGGCTACGACGGGATT
# B30: CUGAGCC (DNA:RNA)
# RNA: B7 RNA with A26U, U28A, A29G, G30C, A31C
# DNA 1: CAATCTGAATTCCGGTCTCCC
# DNA 2: TGGTGGCTACGACGGGATT
# B31: CCCUGAC (DNA:RNA)
# RNA: B7 RNA with A26C, G27C, A29G, G30A, A31C
# DNA 1: CAATCTGAATTCCGGTCTCCC
# DNA 2: TGGTGGCTACGACGGGATT
# Target: T1, RBFOX1 RRM
# Test: EMSA; HiTS-Eq, 1 nM pool, 10 min; buffer printed only for the single-RNA assays: 10 mM Tris pH 7.5, 150 mM NaCl, 3.4 mM EDTA, 0.001% NP-40, 30 C
# Details: tags: His6 N-terminal (pET28a); label: 5' 32P
# In short: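 Relative association constants, normalised to the cognate motif, were derived by comparing read counts of each RNA species with those of the control reaction. The RNA sequenced was the free fraction, separated by 8% native PAGE after a 10 min equilibration in 50 µL of 1 nM 5′-radiolabelled RNA (7 randomized nucleotides) with increasing concentrations of purified wild-type or mutant RbFox RRM.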
row,Binder,binding signal
1,B1,0.00587 KA relative to UGCAUGU
2,B2,0.0299 KA relative to UGCAUGU
3,B3,0.0224 KA relative to UGCAUGU
4,B4,0.000532 KA relative to UGCAUGU
5,B5,0.0149 KA relative to UGCAUGU
6,B6,0.0157 KA relative to UGCAUGU
7,B7,0.0116 KA relative to UGCAUGU
8,B8,0.00626 KA relative to UGCAUGU
9,B9,0.0103 KA relative to UGCAUGU
10,B10,0.00656 KA relative to UGCAUGU
11,B11,0.00724 KA relative to UGCAUGU
12,B12,0.00536 KA relative to UGCAUGU
13,B13,0.00203 KA relative to UGCAUGU
14,B14,0.00912 KA relative to UGCAUGU
15,B15,0.0135 KA relative to UGCAUGU
16,B16,0.00864 KA relative to UGCAUGU

row,Binder,binding signal
1,B17,0.0143 KA relative to UGCAUGU
2,B18,0.00632 KA relative to UGCAUGU
3,B19,0.00116 KA relative to UGCAUGU
4,B20,0.00639 KA relative to UGCAUGU
5,B21,0.00606 KA relative to UGCAUGU
6,B22,0.0263 KA relative to UGCAUGU
7,B23,0.0197 KA relative to UGCAUGU
8,B24,0.00679 KA relative to UGCAUGU
9,B25,0.00773 KA relative to UGCAUGU
10,B26,0.0291 KA relative to UGCAUGU
11,B27,0.00301 KA relative to UGCAUGU
12,B28,0.00389 KA relative to UGCAUGU
13,B29,0.0217 KA relative to UGCAUGU
14,B30,0.00915 KA relative to UGCAUGU
15,B31,0.003 KA relative to UGCAUGU

# From PMC9911399, “Two distinct binding modes provide the RNA-binding protein RbFox with extraordinary sequence specificity”
